Assay results from PubChem BioAssay AID2101 (National Center for Advancing Translational Sciences (NCATS), 2009).
Screen size: about 330,000 compounds; about 300 (0.091%) were called active. This list was built around the results that the source calls inconclusive (neither active nor inactive); the mix of calls is not that of the screen. Calls follow the shape of the dose curve; as a rule, active = well fitted inhibition curve with a large enough effect; inconclusive = small, poorly fitted or top-dose-only effect, or effect the other way, or another doubt; inactive = no such curve, though single readings can be large or run the other way. No potency is given beside an inconclusive call; the fits are too rough.

What follows are compounds tested against Lysosomal acid glucosylceramidase (Homo sapiens) (UniProt P04062) (assay: qHTS Assay for Inhibitors and Activators of N370S glucocerebrosidase as a Potential Chaperone Treatment of Gaucher Disease). Conditions: N370S GC spleen homogenate, 4MU-glucoside fluorescence; activity change, negative = inhibition: at 59.4 µM (top of the series) unless noted.
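For activity change, negative = inhibition in this document: 0% = full enzyme activity and -100% = no enzyme basal.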
Potency is read from the fitted curve at half-maximal effect.

| SMILES | Potency | activity change, negative = inhibition |
| --- | --- | --- |
| CCOC(=O)C1CCN(C(=O)c2cc3c(s2)-c2ccccc2OC3)CC1 | inconclusive [activator, single point] | – |
| O=c1nc2c(-c3ccccc3F)n[nH]n2c2ccccc12 | – | inactive: 14.9% |
| NC(=O)c1ccsc1NC(=O)CSc1nc2ccccc2c(=O)n1CCCO | inconclusive [activator, partial curve] | – |
| CC(=O)Nc1ccc(S(=O)(=O)N2CCc3nc(COc4ccccc4)c4c(c3C2)CO[C@@H](C)C4)cc1 | – | inactive: -13% [at 12.8 µM] |
| CCCCCCOc1ccccc1C(N)=O | inconclusive [activator, single point] | – |
| O=C(Cn1cnc2c(oc3ccccc32)c1=O)N1CCCc2ccccc21 | inconclusive [activator, single point] | – |
| CCn1cc(C2C(C(=O)Nc3ccc(Br)cn3)=C(C)NC3=C2C(=O)CCC3)c(C)n1 (stereo not drawn) | inconclusive [activator, partial curve] | – |
| Cc1cc(Nc2nc3c(c(=O)n(C)c(=O)n3C)n2C)n(-c2ccc(Cl)cc2)n1 | – | inactive: -39.8% |
| N#Cc1ccc(C23CC4(C2)[C@H](CN(P(=O)(c2ccccc2)c2ccccc2)[C@@H]4c2ccccc2)C3c2ccc(Cl)nc2)cc1 (stereo partly drawn) | inconclusive [activator, partial curve] | – |
| COc1cccc(OCCn2cc(C(=O)c3ccco3)c3ccccc32)c1 | inconclusive [activator, partial curve] | – |
| CCOC(=O)c1c(SC)[nH]c2c(Cl)cccc2c1=O | inconclusive [inhibitor, partial curve] | – |
| O=C(NCc1ccccc1)c1cc2ccc(O)cc2oc1=O | inconclusive [activator, partial curve] | – |
| CN(C)c1ccc(C(CNC(=O)c2ccccc2Br)c2c[nH]c3ccccc23)cc1 (stereo not drawn) | – | inconclusive: 29.2% [activator] |
| CC1Sc2ccc(S(=O)(=O)CCC(=O)NCc3ccccc3Cl)cc2NC1=O (stereo not drawn) | inconclusive [inhibitor, single point] | – |
| CCOCCCNc1nc2c(-c3ccccc3)nnn2c2ccccc12 | inconclusive [activator, single point] | – |
| Cc1ccc2nc(NCC(N)=O)nc(-c3ccccc3)c2c1 | inconclusive [activator, partial curve] | – |
| Cc1cccc(N/C=C/C(=C(C#N)C#N)N(C)C)c1 | – | inactive: 7.4% |
| N#C/C(=C/c1ccc(N2CCOCC2)o1)C(=O)NC1CCCCC1 | inconclusive [inhibitor, full curve, poor fit] | – |
| CCc1c(C)nc2c(-c3ccccc3)c(C)nn2c1Nc1ccc(NC(C)=O)cc1 | inconclusive [activator, partial curve, poor fit] | – |
| O=C1OCCN1C(=O)[C@H]1[C@H](c2ccccc2)C(c2cccc(Cl)c2)=NN1c1ccc(Br)cc1 | inconclusive [activator, partial curve] | – |
| CS(=O)(=O)Nc1cccc(C2=NN(S(C)(=O)=O)C(c3ccc4c(c3)OCO4)C2)c1 (stereo not drawn) | inconclusive [inhibitor, single point] | – |

| SMILES | Potency | activity change, negative = inhibition |
| --- | --- | --- |
| Nc1c(C(=O)NCC2CCCO2)sc2nc3c(c(-c4ccco4)c12)CC/C3=C\c1ccco1 (stereo not drawn) | – | inactive: -5.5% |
| COc1cc2c(cc1NC(=O)COC(=O)[C@@H](NS(=O)(=O)c1ccccc1)C(C)C)oc1ccccc12 | inconclusive [activator, full curve] | – |
| N/C(=N\O)c1ccc(N2CCN(c3ncccc3C(F)(F)F)CC2)nc1 | inconclusive [inhibitor, partial curve] | – |
| Cc1cc(-c2nn(-c3ccccc3F)cc2CN2CCC(O)CC2)c(C)s1 | inconclusive [inhibitor, single point] | – |
| Cc1cc(C)c2ccc(=O)n(CC(=O)N/N=C/c3ccccc3Cl)c2n1 | inconclusive [activator, single point] | – |
| NCc1c(O)ccc2ccccc12 | inconclusive [activator, single point] | – |
| CCCCC(=NCCO)C1=C(O)C(C(=O)OC)C(C)(C)CC1=O (stereo not drawn) | – | inactive: 0.477% |
| Cn1c2ccccc2c(=O)c2cc(C#CC3(O)CCCCC3)ccc21 | inconclusive [activator, partial curve] | – |
| S=C(Nc1ccc(-c2nc3ccccc3[nH]2)cc1)Nc1cccnc1 | inconclusive [inhibitor, partial curve, poor fit] | – |
| CCOc1cc(S(=O)(=O)N2CCN(CC)CC2)ccc1Cl | inconclusive [inhibitor, partial curve] | – |
| CC(NC(=O)CSc1nc2sc3c(c2c(=O)n1-c1ccccc1)CCCC3)c1ccccc1 (stereo not drawn) | inconclusive [inhibitor, full curve] | – |
| NC1=NC[C@H](c2ccccc2)N1CCCCC1CCCCC1 | – | inactive: -16% |
| COc1ccc2sc(N(CCCN(C)C)C(=O)c3ccc(S(=O)(=O)N4CCCc5ccccc54)cc3)nc2c1 | inconclusive [inhibitor, partial curve] | – |
| O=C(Nc1ccc(Cl)cc1)c1cc2c(cc1O)[nH]c1ccccc12 | inconclusive [activator, single point] | – |
| COc1cccc(C(c2c(NC(=O)c3ccccc3)sc(C)c2C)N2CCN(C)CC2)c1 (stereo not drawn) | active: 15.8 µM | – |
| CC(=O)Nc1ccc(OC(=O)c2ccco2)cc1 | inconclusive [activator, partial curve, poor fit] | – |
| CCn1ccc(C(=O)Nc2ccc3c(c2)CCC3)n1 | inconclusive [activator, partial curve, poor fit] | – |
| CCN1CCN(CCCN(Cc2ccco2)C(=S)Nc2ccc(Cl)c(C)c2)CC1 | inconclusive [inhibitor, partial curve] | – |
| O=C(NCC(c1ccco1)N1CCCCC1)c1ccc(OCc2ccccc2)cc1 (stereo not drawn) | inconclusive [inhibitor, partial curve] | – |
| C[C@H]1Cc2c(-c3ccccc3)nc3c(c2CO1)CN(C(=O)NCc1ccco1)CC3 | – | inactive: 3.41% [at 12.8 µM] |
| COC(=O)[C@H](COC(C)(C)C)NC(=O)O[C@@H]1C(=O)c2ccc(OC)cc2O[C@H]1c1cccc(C(F)(F)F)c1 | – | inactive: 17.6% |

| SMILES | Potency | activity change, negative = inhibition |
| --- | --- | --- |
| Cc1cc(C)c2c(-n3cccc3)c(C(=O)NNS(=O)(=O)c3ccccc3)sc2n1 | – | inactive: 20.3% |
| Cn1c(CCNC(=O)c2ccco2)nc2cc(NC(=O)c3ccccc3)ccc21 | inconclusive [activator, full curve, poor fit] | – |
| C/C(=N\NC(=O)c1c(Cl)c(C)nn1C)c1ccc(NC(=O)COc2ccc(Cl)cc2C)cc1 | – | inactive: 5.67% |
| COc1ccc(/C=C2\Oc3cc(OCC(=O)N4CC(O)C[C@H]4C(=O)O)ccc3C2=O)c(OC)c1OC (stereo partly drawn) | inconclusive [inhibitor, single point] | – |
| Cc1cc(C(=O)COC(=O)c2ccco2)c(C)n1Cc1ccco1 | – | inactive: -7.47% |
| Fc1ccccc1-c1nc(NCCCN2CCOCC2)c2ccccc2n1 | inconclusive [inhibitor, full curve, poor fit] | – |
| c1csc(-c2nc(N3CCOCC3)c3ccccc3n2)c1 | inconclusive [inhibitor, full curve, poor fit] | – |
| CCc1ccc(/C=N/n2c(C3CCCCC3)n[nH]c2=S)cc1 | inconclusive [activator, single point] | – |
| COc1ccc(-c2cnn3c(N)c(S(=O)(=O)C(C)(C)C)cnc23)cc1 | inconclusive [activator, full curve] | – |
| Fc1ccc(C2CC(c3ccco3)=NN2c2ccccc2)cc1 (stereo not drawn) | – | inactive: 7% |
| CCOc1ccc2nc(N(CCCN(C)C)C(=O)c3ccc(S(=O)(=O)N4CCc5ccccc5C4)cc3)sc2c1 | inconclusive [inhibitor, single point] | – |
| O=S1(=O)CC2N=C(N(Cc3c(F)cccc3Cl)c3ccccc3F)SC2C1 (stereo not drawn) | inconclusive [inhibitor, single point] | – |
| Cc1cc(C)cc(C(=O)Nc2ccncc2)c1 | inconclusive [inhibitor, single point] | – |
| COc1cccc(CNC(=O)COc2cc3c(c4oc(=O)cc(C)c24)CCC(C)(C)O3)c1 | inconclusive [activator, single point] | – |
| CCC(C)(C)NC(=O)C(OC(=O)c1cc2sccc2n1C)c1ccc(OC)cc1 (stereo not drawn) | inconclusive [activator, partial curve] | – |
| Cc1cc(NC(=O)CCS(=O)(=O)c2ccc3c(c2)NC(=O)C(C)S3)ccc1Br (stereo not drawn) | active: 8.91 µM | – |
| Cc1ccc(S(=O)(=O)N2CCCC2C(=O)Nc2nc3c(s2)CCCC3)cc1 (stereo not drawn) | inconclusive [activator, single point] | – |
| COc1cc2c(C(=O)O)c(C)n(-c3ccccc3)c2c2ccccc12 | inconclusive [activator, full curve, poor fit] | – |
| Cc1ccc2cc(CN(CCCO)S(=O)(=O)c3ccccc3F)c(=O)[nH]c2c1C | inconclusive [activator, single point] | – |
| CC(C)C[C@H](NC(=O)c1[nH]cnc1C(=O)N[C@@H](Cc1ccccc1)C(=O)OCc1ccccc1)C(=O)OC(C)(C)C | inconclusive [activator, single point] | – |
| CCCSc1oc(-c2ccco2)nc1S(=O)(=O)c1ccc(C)cc1 | inconclusive [activator, single point] | – |
